# Assay results taken from paper PMC6919601, “Identification of Plasmodium dipeptidyl aminopeptidase allosteric inhibitors by high throughput screening” (PLoS ONE, 2019).
# Where “and” joins values, the source holds several entries; their conditions need not be identical. Equal entries are not always repeated. In all, about 110,000 compounds went through this assay and about 230 (0.21%) showed an effect of 50% or more. The list shows a part of the results.
# Target: DPAP1 (Plasmodium falciparum, UniProt Q8IIJ9)
# Test: primary screen, percent inhibition; read by cleavage of a fluorogenic dipeptide substrate; higher = more effect of the substance
# Set-up: species or system P. falciparum D10 trophozoite lysates; single well
# 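Note: 30 min substrate incubation versus DMSO and 10 µM JCP410 controls.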
# Sequence of DPAP1 (Q8IIJ9 whole entry, looked up): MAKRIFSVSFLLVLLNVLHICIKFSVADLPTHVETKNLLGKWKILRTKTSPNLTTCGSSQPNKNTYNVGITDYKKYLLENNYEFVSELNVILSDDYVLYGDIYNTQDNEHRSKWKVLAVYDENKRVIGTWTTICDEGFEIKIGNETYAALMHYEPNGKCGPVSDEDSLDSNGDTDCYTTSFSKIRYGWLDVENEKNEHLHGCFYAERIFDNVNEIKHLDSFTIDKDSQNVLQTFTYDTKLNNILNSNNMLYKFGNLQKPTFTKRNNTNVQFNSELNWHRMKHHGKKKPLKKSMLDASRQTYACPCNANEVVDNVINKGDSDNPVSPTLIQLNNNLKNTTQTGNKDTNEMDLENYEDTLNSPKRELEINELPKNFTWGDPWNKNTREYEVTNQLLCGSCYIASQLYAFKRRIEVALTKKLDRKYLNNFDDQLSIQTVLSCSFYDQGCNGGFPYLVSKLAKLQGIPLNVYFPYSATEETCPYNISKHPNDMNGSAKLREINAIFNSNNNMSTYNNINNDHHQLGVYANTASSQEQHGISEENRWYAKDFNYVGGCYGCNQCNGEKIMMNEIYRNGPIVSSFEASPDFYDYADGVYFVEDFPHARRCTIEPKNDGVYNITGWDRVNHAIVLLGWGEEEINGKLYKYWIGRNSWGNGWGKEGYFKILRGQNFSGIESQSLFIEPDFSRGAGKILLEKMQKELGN
row,SMILES,% Inhibition @ 10 uM
1,CC(C)C(C(=O)NC(=O)NC(c1ccccc1)c1ccccc1)N1C(=O)c2ccccc2C1=O (centres unmarked),-9.1%
2,COC(=O)c1nnn(-c2ccccc2)c1C(=O)OC,1.85%
3,CC(C)n1cnc2c(=O)oc3ccccc3c21,1.38%
4,CCOc1ccc(C2CC(c3cc(OC)c(OC)c(OC)c3)n3nnnc3N2)cc1 (centres unmarked),1.73%
5,O=c1oc(/C=C/c2ccco2)nc2sc3c(c12)CCCC3,3.76%
6,Cc1ccc(S(=O)(=O)N2CC=C(C(=O)NC(C)CCc3ccccc3)CC2)cc1 (centres unmarked),-0.406%
7,Cc1ccc(Cc2ccc(C(=O)Nc3ccc(S(=O)(=O)Nc4nccs4)cc3)o2)cc1,25.7%
8,O=C(Nc1ccc(Cl)cc1)N1CCN(c2ccc(Cl)cc2)CC1,3.57%
9,COc1ccc(S(=O)(=O)N(CC(=O)Nc2ccc(C)cc2C)c2ccccc2)cc1,3.66%
10,Cc1ccccc1OCc1nn2c(COc3ccccc3)nnc2s1,4.96%
11,Cn1cc(Cl)c(C(=O)Nc2cccc(S(=O)(=O)N3CCOCC3)c2)n1,0.471%
12,CN1CCN(c2ccc(Nc3ccnc4cc(Cl)ccc34)cc2)CC1,-1.63%
13,OCCN1CCN(CC#CCC(O)(c2ccccc2)c2ccccc2)CC1,4.42%
14,CCSC1=C(C#N)C(=O)NC(/C=C/c2ccccc2)S1 (centres unmarked),3.35%
15,COc1cccc(C2NC(=O)NC(C)=C2C(=O)OCCSC)c1OC (centres unmarked),2.7%
16,O=C(O)Cc1nc2ccccc2[nH]1,-1.72%
17,O=C1NC(=S)N(c2ccc(Cl)cc2Cl)C(=O)/C1=C/c1ccc(O)cc1,-1.66%
18,Cc1ccccc1OCC(=O)Nc1cccc(Cl)c1C,5.09%
19,CCOC(=O)c1c(C)oc2ncnc(N3CCC4(CC3)OCCO4)c12,1.75%
20,N=C1/C(=C/c2ccc(O)cc2)C(=O)N=C2SC(C(F)(F)F)=NN12,7.13%
21,CC1CCc2c(sc3ncn4nnnc4c23)C1 (centres unmarked),-1.6%
22,CC(C)(C)OC(=O)N1CCC(c2c(C(=O)N3CCOCC3)cnn2C(C)(C)C)CC1,1.06%

row,SMILES,% Inhibition @ 10 uM
1,CCCOc1ccc(C2C(=O)N(C3CCC(C)CC3)CC(=O)N2Cc2ccc(F)cc2)cc1OC (centres unmarked),-0.406%
2,Cc1nn(Cc2ccccc2)c(C)c1Cc1ccccc1,-0.744%
3,CSc1ncc(C(=O)N2CCN(c3ncccn3)CC2)c(C)n1,-2.48%
4,COc1ccc(N(CC(=O)NC2CCCCC2)S(C)(=O)=O)cc1Cl,-5.26% and -5.07%
5,CCSC1=C(C#N)C(c2ccccc2Cl)CC(=O)N1 (centres unmarked),0.962%
6,Cc1ccc(NC(=O)c2cc(F)c(F)cc2Cl)nc1,-5.36%
7,COc1ccc(CCNC(=O)Cn2nnc3sc(-c4ccccc4)cc3c2=O)cc1OC,6.85%
8,CCN(CC)c1ccc(C2Nc3ccc4ccccc4c3C3=C2C(=O)CC(C)(C)C3)cc1 (centres unmarked),-4.26%
9,CC(C)OC1=C(OC(C)C)C(C2(c3ccccc3O)SCCCS2)C1=O (centres unmarked),-3.04%
10,O=C(CCNc1c(N2CCCC2)c(=O)c1=O)NC1CCCCC1,3.3%
11,Cc1ccc(C2CC(C(F)(F)F)n3ncc(C(N)=O)c3N2)cc1 (centres unmarked),5.73%
12,CCC(C)OC(=O)C1=C(C)NC(=O)CC1c1ccccc1C(F)(F)F (centres unmarked),-3.51%
13,c1coc(CNC2CCCCCCC2)c1,-3.6%
14,CCN1CCN(C(C)CCc2ccccc2)CC1 (centres unmarked),-2.34%
15,Cc1cc(=O)n2nc(N3CCC(C(=O)NC4CCN(Cc5ccccc5)CC4)CC3)sc2n1,-0.281%
16,CC(C)c1nc(N2CCN(C(=O)c3ccccc3)CC2)c(C#N)c2c1COC(C)(C)C2,-0.884%
17,C(=C\c1ccccc1)/CN1CCN(C/C=C/c2ccccc2)CC1,2.91%
18,O=C(Nc1cccnc1)c1cc(-c2ccc(Br)cc2)nc2ccccc12,-3.02%
19,COc1cccc(OCC(O)CN2CCN(c3ccc(F)cc3)CC2)c1 (centres unmarked),-0.795%
20,CCCCCCn1c(=O)c(C(=O)Nc2ncc(C)s2)c(O)c2ccccc21,-1.64%
21,CCNCC(O)CN1CCC(C)CC1 (centres unmarked),0.878%
22,CCN1CCN(Cc2ccccc2Cl)CC1,3%

row,SMILES,% Inhibition @ 10 uM
1,Cc1ccc(Cn2c3ccccc3c3cnnc(O)c32)cc1,-0.0309%
2,CC12CCC3(C=C1CCCC21SCCS1)SCCS3 (centres unmarked),-1.37%
3,CCN1CCC(NCCC(c2ccccc2)c2ccccc2)CC1,-1.15%
4,COc1ccc(-c2nc3s/c(=C\c4ccc(OCC(N)=O)cc4)c(=O)n3n2)cc1OC,6.96%
5,N#CCNC(=O)[C@H](CSCc1ccncc1)NC(=O)c1ccccc1,-3.49%
6,Cc1oc2c(c1C(=O)NC1CCS(=O)(=O)C1)C(=O)c1ccccc1C2=O (centres unmarked),-3.53%
7,O=C(Nc1cccnc1Cl)C1c2ccccc2Oc2ccccc21,-3.33%
8,CCOC(=O)/C(=C\c1ccccc1)NC(=O)c1ccccc1,-3.58%
9,O=C(/C=C/c1ccco1)NCC1(c2ccccc2)CCOCC1,0.685%
10,Cc1cc(/C=C2\NC(=O)NC2=O)c(C)n1-c1cccc(Cl)c1,2.38%
11,Cc1ccc(OCC(=O)N2CCN(C3=NS(=O)(=O)c4ccccc43)CC2)cc1,2.05%
12,CCc1c(C)sc(NC(=O)c2cccnc2Cl)c1C#N,5.58%
13,Nc1nc(-c2cccnc2)nn1C(=O)Cc1ccccc1,3.93%
14,CCCN1CCC(N2CCN(C(=O)OCC)CC2)CC1,-3.6%
15,COc1ccc(NC(=O)C(N)=O)cc1,-0.414%
16,COc1cccc(CN2CCN(Cc3ccccc3C)CC2)c1,-0.822%
17,CC(C)c1ccc(C2C(C#N)=C(N)OC3=C2C(=O)CC(C)(C)C3)cc1 (centres unmarked),1.41%
18,CC(=O)N1CCC(NCCc2c[nH]c3ccccc23)CC1,-2.02%
19,COc1ccc(/N=C2/S/C(=C\c3cc(Br)ccc3OCC#N)C(=O)N2C)cc1,7.16%
20,O=C(Nc1ccccc1)c1ccccc1NC(=O)C1CCCCC1,3.49%
21,CN1C(=O)C(=Cc2cccn2-c2ccc([N+](=O)[O-])cc2)C(=O)N(C)C1=O,4.5%
